Screen size: about 310,000 compounds; about 2,200 (0.71%) showed an effect of 50% or more. The effect is printed as a negative number. The list shows a part of the results.

Data on 56 molecules can be found in article PMC4336329 (PLoS ONE, 2015).

The target of the assay is human ether-à-go-go-related gene (hERG) potassium channel (human, UniProt Q12809). In words: primary screen, population patch clamp on CHO cells stably expressing hERG.
Sequence of human ether-à-go-go-related gene (hERG) potassium channel (Q12809 whole entry, looked up): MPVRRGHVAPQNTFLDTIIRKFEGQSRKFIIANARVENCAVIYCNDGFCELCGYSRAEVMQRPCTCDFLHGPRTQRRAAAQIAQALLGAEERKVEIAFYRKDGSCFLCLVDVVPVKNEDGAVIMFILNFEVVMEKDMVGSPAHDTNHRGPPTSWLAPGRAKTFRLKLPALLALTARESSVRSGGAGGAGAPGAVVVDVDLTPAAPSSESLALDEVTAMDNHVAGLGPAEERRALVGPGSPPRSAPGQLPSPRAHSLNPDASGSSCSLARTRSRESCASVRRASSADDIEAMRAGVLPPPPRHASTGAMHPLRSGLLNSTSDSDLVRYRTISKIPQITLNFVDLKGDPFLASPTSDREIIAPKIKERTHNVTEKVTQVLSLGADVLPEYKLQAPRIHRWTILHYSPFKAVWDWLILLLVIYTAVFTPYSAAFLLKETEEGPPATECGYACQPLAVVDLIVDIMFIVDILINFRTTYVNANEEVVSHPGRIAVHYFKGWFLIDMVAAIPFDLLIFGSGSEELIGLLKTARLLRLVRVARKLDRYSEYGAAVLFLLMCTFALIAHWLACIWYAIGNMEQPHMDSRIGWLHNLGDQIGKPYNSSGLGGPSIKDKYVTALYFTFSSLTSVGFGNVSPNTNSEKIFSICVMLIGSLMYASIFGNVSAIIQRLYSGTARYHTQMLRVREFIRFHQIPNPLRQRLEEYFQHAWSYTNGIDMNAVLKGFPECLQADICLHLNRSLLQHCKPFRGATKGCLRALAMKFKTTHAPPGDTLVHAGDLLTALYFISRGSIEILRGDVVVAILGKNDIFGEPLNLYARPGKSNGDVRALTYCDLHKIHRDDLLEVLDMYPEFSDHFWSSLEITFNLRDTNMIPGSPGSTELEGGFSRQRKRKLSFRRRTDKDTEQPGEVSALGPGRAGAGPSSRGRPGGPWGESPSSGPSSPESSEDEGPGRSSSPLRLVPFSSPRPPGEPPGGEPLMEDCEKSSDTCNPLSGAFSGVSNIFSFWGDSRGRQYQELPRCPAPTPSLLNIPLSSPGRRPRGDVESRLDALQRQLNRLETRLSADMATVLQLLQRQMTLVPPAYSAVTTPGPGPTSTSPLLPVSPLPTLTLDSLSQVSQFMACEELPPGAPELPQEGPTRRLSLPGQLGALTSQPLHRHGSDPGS
As to `COc1ccc(CN2C(=NC(=O)C3CC3)SC3CS(=O)(=O)CC32)cc1` (centres unmarked), the “hERG current change (%, negative = inhibition) at 1uM” value was found to be 9.93%.
With `CN1CCN(CCOc2ccc(Cc3ccccc3)cc2)CC1.Cl` the figure was 8.96%; with `Cc1ccccc1OCC1CNC(=O)O1` (centres unmarked), 18.3%.
Next, `CCC/C=N/Nc1nc2ccccc2s1`: 5.89%; `CCOc1ccc(NC(=O)C(C)O)c(NS(=O)(=O)c2ccc(CCNC(C)=O)cc2)c1` (centres unmarked): 13.6%.
As to `Cc1c(NC(=O)CSc2nnc(N)s2)c(=O)n(-c2ccccc2)n1C`, the “hERG current change (%, negative = inhibition) at 1uM” value amounted to 2.02%.
With `O=C(COC(=O)C1=COCCO1)NCc1ccc(Cl)cc1` the figure was 6.69%; with `CC1CCCN(C(=O)NC(=O)c2ccc(Cl)cc2)C1` (centres unmarked), 13.3%.
Regarding `Cc1ccc(C(C(=O)NC(C)(C)C)N(Cc2ccco2)C(=O)CCC(=O)Nc2ccccn2)cc1` (centres unmarked), the “hERG current change (%, negative = inhibition) at 1uM” value is given as 8.68%.
With `O=C(CC1CCCC1)Nc1cc(S(=O)(=O)N2CCOCC2)ccc1O` the figure was 5.82%; with `COc1ccc(NC(=O)Cn2cc(C(C)=O)c3ccccc32)cc1`, 5.97%.
Next, `Cl.Clc1ccc(Sc2ccccn2)cc1`: 18.5%; `COc1cc(OC)cc(C(=O)N2CCC(N3CCN(c4ccccc4OC)CC3)CC2)c1.O=C(O)C(F)(F)F`: -5.33%.
As to `COc1ccccc1OCc1nc(C#N)c(NCc2ccco2)o1`, the “hERG current change (%, negative = inhibition) at 1uM” value is reported as 3.38%.
For the molecule `Cc1ccccc1OCC(=O)Nc1ccc2c(c1)Cc1ccccc1-2`, the “hERG current change (%, negative = inhibition) at 1uM” value is listed as 0.369%.
Next, `COc1cc2c(cc1OC)C(C)N(C(=O)CCc1c[nH]c3ccccc13)CC2` (centres unmarked): 13.5%; `CS(=O)(=O)c1ccc(-c2nnc(NC(=O)c3ccco3)o2)cc1`: 20.5%; `CNC(=O)NC(=O)C(c1ccccc1)N(C)CC1COc2ccccc2O1` (centres unmarked): 15.4%.
With `Cl.O=C(Nc1cccc(F)c1)[C@@H]1CCCN1`, the “hERG current change (%, negative = inhibition) at 1uM” value is reported as 15.7%.
As to `C=CCn1c(=NC(=O)c2ccc(S(=O)(=O)N3CCCC3)cc2)sc2cc(NC(C)=O)ccc21`, the “hERG current change (%, negative = inhibition) at 1uM” value is -6.32%.
As for `COc1cc(CNCCNC(=O)c2nonc2N)ccc1OCc1ccc(Cl)cc1.Cl`, the “hERG current change (%, negative = inhibition) at 1uM” value is -19%.
Take `CCc1nnc(NC(=O)CSc2nc3ccccc3s2)s1`: the “hERG current change (%, negative = inhibition) at 1uM” value was found to be 3.39%.
Next, `COc1ccccc1C(=O)Nc1c(C)cc(Br)cc1C`: 6.43%.
With `COc1ccc(Cc2nnc(-c3cccc(C)c3)o2)cc1OC` the figure was 8.45%; with `COCCNC(=O)C(c1ccncc1)N(C(=O)Cn1nnc2ccccc21)c1ccc(OC)cc1` (centres unmarked), 10.3%.
With `O=c1cc(CN2CCN(c3cccc(Cl)c3)CC2)c2cc3c(cc2o1)CCCC3`, the “hERG current change (%, negative = inhibition) at 1uM” value stood at 12.4%.
In the case of `COc1cc(NC(=O)CSc2nc(=O)n(CCN3CCOCC3)c3c2CCC3)cc(OC)c1`, the “hERG current change (%, negative = inhibition) at 1uM” value is -2.97%.
Turning to `COc1ccc(NC(=S)N2CCC(C(=O)c3ccc(OC)cc3)CC2)cc1`, the “hERG current change (%, negative = inhibition) at 1uM” value came out at 5.51%.
`CC(=O)c1ccc(N2CCN(C(=O)C3CCN(S(=O)(=O)Cc4ccccc4)CC3)CC2)cc1`: the “hERG current change (%, negative = inhibition) at 1uM” value is on record as 13.6%.
Next, `O=C(N/N=C\c1ccc(S(=O)(=O)[O-])o1)c1ccc2c(c1)OCO2.[Na+]`: 18.7%.
With `CC1CCC2(CC1)SCC(=O)N2c1ccccc1` (centres unmarked) the figure was 7.42%; with `O=c1c([N+](=O)[O-])c(N2CCCCCC2)c2ccccc2n1-c1ccccc1`, 16%.
On to `N/C(=N\OC(=O)CCn1cccc(C(F)(F)F)c1=O)c1ccc(Cl)cc1`, for which the “hERG current change (%, negative = inhibition) at 1uM” value came to 5.09%.
With `CCOc1cc(S(=O)(=O)n2c(C)nc3ccccc32)ccc1F` the figure was 3.14%; with `Cc1ccc(-n2[nH]c(C)c(/C=N/Nc3ccc([N+](=O)[O-])cc3[N+](=O)[O-])c2=O)cc1C`, 9.38%.
`CCN(CC)CCNC(=O)C1c2cc(OC)c(OC)cc2C(=O)N2CCc3ccccc3C12` (centres unmarked): the “hERG current change (%, negative = inhibition) at 1uM” value amounted to 5.27%.
Turning to `COc1ccc(CCNC(=O)c2ccc(N(C)S(=O)(=O)c3ccccc3)cc2)cc1`, the “hERG current change (%, negative = inhibition) at 1uM” value is 10.9%.
For the molecule `COCCCN1CC(=O)N2Cc3[nH]c4ccccc4c3C[C@H]2C1=O`, the “hERG current change (%, negative = inhibition) at 1uM” value came out at 16.4%.
With `COC(=O)c1c(-c2ccco2)csc1NC(=O)C1CC=CCC1C(=O)O` (centres unmarked) the figure was 2.04%; with `CCSc1nc(-c2ccc(OC)cc2)ccc1C#N`, 5.36%.
With `COc1ccc(CCNC(=O)Cc2ccccc2)cc1OC`, the “hERG current change (%, negative = inhibition) at 1uM” value is on record as 19.1%.
With `Cc1cc(Nc2cccc(O)c2)c2ccccc2n1.Cl`, the “hERG current change (%, negative = inhibition) at 1uM” value is -14.9%.
With `CCC(C)NC(=O)c1[nH]c(C)c(C(=O)OC)c1C` (centres unmarked) the figure was -0.184%; with `COc1ccc(NC(C)C(=O)N/N=C/c2cc(Br)ccc2OC)cc1` (centres unmarked), 14.9%.
`CS(=O)(=O)N1N=C(c2ccco2)CC1c1ccc(Cl)cc1` (centres unmarked): the “hERG current change (%, negative = inhibition) at 1uM” value was 6.82%.
As for `O=C(NCCCN1CCN(Cc2ccccc2)CC1)c1nnc(Cc2c(F)cccc2Cl)o1`, the “hERG current change (%, negative = inhibition) at 1uM” value is given as -39.4%.
Take `CC(=O)c1cccc(NC(=O)C(C)OC(=O)c2ccc3ncsc3c2)c1` (centres unmarked): the “hERG current change (%, negative = inhibition) at 1uM” value is reported as 2.7%.
Next, `CCCCn1c(SCC(N)=O)nc2ccc(N3CCOCC3)cc2c1=O`: -16.9%; `CC(OC(=O)CN(C)S(=O)(=O)c1ccc(Cl)cc1)C(=O)Nc1cccc(Cl)c1` (centres unmarked): 9.88%; `Cc1ccc(C(=O)NCC(=O)NCC(=O)OCC(=O)c2ccc([N+](=O)[O-])cc2)cc1`: 11.1%.
With `COc1cc(C2Nc3cccc4cccc(c34)N2)cc(OC)c1OC(C)=O` the figure was 6.81%; with `CCOc1ccc(C(=O)Nc2ccc(CN3CCOCC3)cc2)cc1Cl`, -14.2%.
As to `CC(OC(=O)c1c[nH]c2ccccc12)C(=O)N1CCCC1` (centres unmarked), the “hERG current change (%, negative = inhibition) at 1uM” value is listed as 12.9%.
`O=C(Nc1c(F)cccc1F)C1CCN(C(=O)c2cccs2)CC1`: the “hERG current change (%, negative = inhibition) at 1uM” value is reported as 13.1%.
Turning to `COc1cccc(OC)c1C(=O)Nc1ccc(N2CCN(S(C)(=O)=O)CC2)cc1`, the “hERG current change (%, negative = inhibition) at 1uM” value came to 8.42%.
Next, `Cc1ccc(-n2c(=O)[nH]cc(C(=O)Nc3ccc4c(c3)OCO4)c2=O)cc1C`: -2.26%.
